# Results from the supplement of paper PMC8728848.
# Some of the results follow.
# Legend:
# Assay in all cases: glycan array binding signal (z-score within array); higher = stronger binding
# Conditions in all cases: glycan notation: IUPAC condensed, linker removed
# [1] = molecular target: Fuc(a1-3)[GalNAc(b1-4)]GlcNAc
# Method in brief: (§1)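 Negative Z-scores can be read as non-binding. The Z-score is calculated within each array and then averaged across arrays of one protein sequence at different concentrations or buffers and across linkers. Arrays, 3228 in all, were curated from the Consortium for Functional Glycomics database and kept only where the protein sequence was available.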
# Fuc(a1-4)GlcNAc = molecular target: Fuc(a1-4)GlcNAc
# Method in brief: as §1
# Fuc(b1-3)GlcNAc = molecular target: Fuc(b1-3)GlcNAc
# Method in brief: as §1
# Gal(a1-2)Gal = molecular target: Gal(a1-2)Gal
# Method in brief: as §1
# Gal(a1-3)Gal = molecular target: Gal(a1-3)Gal
# Method in brief: as §1
# Gal(a1-3)Gal(b1-3)GlcNAc = molecular target: Gal(a1-3)Gal(b1-3)GlcNAc
# Method in brief: as §1
# Gal(a1-3)Gal(b1-4)Glc = molecular target: Gal(a1-3)Gal(b1-4)Glc
# Method in brief: as §1
# Gal(a1-3)Gal(b1-4)GlcNAc = molecular target: Gal(a1-3)Gal(b1-4)GlcNAc
# Method in brief: as §1
# [2] = molecular target: Gal(a1-3)Gal(b1-4)[Fuc(a1-3)]GlcNAc
# Method in brief: as §1
# Gal(a1-3)GalNAc = molecular target: Gal(a1-3)GalNAc
# Method in brief: as §1
# [3] = molecular target: Gal(a1-3)[Gal(a1-4)]Gal(b1-4)GlcNAc
# Method in brief: as §1
# Gal(a1-4)Gal(b1-4)Glc = molecular target: Gal(a1-4)Gal(b1-4)Glc
# Method in brief: as §1
# Gal(a1-4)Gal(b1-4)GlcNAc = molecular target: Gal(a1-4)Gal(b1-4)GlcNAc
# Method in brief: as §1
# Gal(a1-4)GlcNAc = molecular target: Gal(a1-4)GlcNAc
# Method in brief: as §1
# Gal(a1-6)Glc = molecular target: Gal(a1-6)Glc
# Method in brief: as §1
# Gal(b1-2)Gal = molecular target: Gal(b1-2)Gal
# Method in brief: as §1
# Gal(b1-3)Gal = molecular target: Gal(b1-3)Gal
# Method in brief: as §1
# Gal(b1-3)Gal(b1-4)GlcNAc = molecular target: Gal(b1-3)Gal(b1-4)GlcNAc
# Method in brief: as §1
# Gal(b1-3)GalNAc = molecular target: Gal(b1-3)GalNAc
# Method in brief: as §1
# [4] = molecular target: Gal(b1-3)GalNAc(b1-3)Gal(a1-4)Gal(b1-4)Glc
# Method in brief: as §1
# [5] = molecular target: Gal(b1-3)GalNAc(b1-4)Gal(b1-4)Glc
# Method in brief: as §1
# [6] = molecular target: Gal(b1-3)GalNAc(b1-4)[Neu5Ac(a2-3)]Gal(b1-4)Glc
# Method in brief: as §1
# Gal(b1-3)GlcNAc = molecular target: Gal(b1-3)GlcNAc
# Method in brief: as §1
# [7] = molecular target: Gal(b1-3)GlcNAc(b1-2)Man(a1-3)[Gal(b1-3)GlcNAc(b1-2)Man(a1-6)]Man(b1-4)GlcNAc(b1-4)GlcNAc
# Method in brief: as §1
# [8] = molecular target: Gal(b1-3)GlcNAc(b1-3)Gal(b1-3)GlcNAc
# Method in brief: as §1
# [9] = molecular target: Gal(b1-3)GlcNAc(b1-3)Gal(b1-4)Glc
# Method in brief: as §1
# [10] = molecular target: Gal(b1-3)GlcNAc(b1-3)Gal(b1-4)GlcNAc
# Method in brief: as §1
# [11] = molecular target: Gal(b1-3)[Fuc(a1-4)]GlcNAc
# Method in brief: as §1
# [12] = molecular target: Gal(b1-3)[Fuc(a1-4)]GlcNAc(b1-3)Gal(b1-3)[Fuc(a1-4)]GlcNAc
# Method in brief: as §1
# [13] = molecular target: Gal(b1-3)[Fuc(a1-4)]GlcNAc(b1-3)Gal(b1-4)GlcNAc
# Method in brief: as §1
# [14] = molecular target: Gal(b1-3)[Fuc(a1-4)]GlcNAc(b1-3)Gal(b1-4)[Fuc(a1-3)]GlcNAc
# Method in brief: as §1
# [15] = molecular target: Gal(b1-3)[GlcNAc(b1-6)]GalNAc
# Method in brief: as §1
# [16] = molecular target: Gal(b1-3)[Neu5Ac(a2-6)]GalNAc
# Method in brief: as §1
# [17] = molecular target: Gal(b1-3)[Neu5Ac(a2-6)]GlcNAc(b1-6)Gal(b1-4)Glc
# Method in brief: as §1
# [18] = molecular target: Gal(b1-3)[Neu5Ac(b2-6)]GalNAc
# Method in brief: as §1
# [19] = molecular target: Gal(b1-4)GalNAc(a1-3)[Fuc(a1-2)]Gal(b1-4)GlcNAc
# Method in brief: as §1
# [20] = molecular target: Gal(b1-4)GalNAc(b1-3)[Fuc(a1-2)]Gal(b1-4)GlcNAc
# Method in brief: as §1
# Gal(b1-4)Glc = molecular target: Gal(b1-4)Glc
# Method in brief: as §1
# Gal(b1-4)Glc6S = molecular target: Gal(b1-4)Glc6S
# Method in brief: as §1
# Gal(b1-4)GlcNAc = molecular target: Gal(b1-4)GlcNAc
# Method in brief: as §1
# [21] = molecular target: Gal(b1-4)GlcNAc(a1-6)Gal(b1-4)GlcNAc
# Method in brief: as §1
# [22] = molecular target: Gal(b1-4)GlcNAc(b1-2)Man(a1-3)[Gal(b1-4)GlcNAc(b1-2)Man(a1-6)]Man(b1-4)GlcNAc(b1-4)GlcNAc
# Method in brief: as §1
# [23] = molecular target: Gal(b1-4)GlcNAc(b1-3)Gal(b1-3)GlcNAc
# Method in brief: as §1
# [24] = molecular target: Gal(b1-4)GlcNAc(b1-3)Gal(b1-4)Glc
# Method in brief: as §1
# [25] = molecular target: Gal(b1-4)GlcNAc(b1-3)Gal(b1-4)GlcNAc
# Method in brief: as §1
binder,measurement,setting,value
"mLPHN-1 (Mus musculus), Q80TR1 (protein) MARLAAALWSLCVTTVLVTSATQGLSRAGLPFGLMRRELACEGYPIELRCPGSDVIMVENANYGRTDDKICDADPFQMENVQCYLPDAFKIMSQRCNNRTQCVVVAGSDAFPDPCPGTYKYLEVQYDCVPYIFVCPGTLQKVLEPTSTHESEHQSGAWCKDPLQAGDRIYVMPWIPYRTDTLTEYASWEDYVAARHTTTYRLPNRVDGTGFVVYDGAVFYNKERTRNIVKYDLRTRIKSGETVINTANYHDTSPYRWGGKTDIDLAVDENGLWVIYATEGNNGRLVVSQLNPYTLRFEGTWETGYDKRSASNAFMVCGVLYVLRSVYVDDDSEAAGNRVDYAFNTNANREEPVSLAFPNPYQFVSSVDYNPRDNQLYVWNNYFVVRYSLEFGPPDPSAGPATSPPLSTTTTARPTPLTSTASPAATTPLRRAPLTTHPVGAINQLGPDLPPATAPAPSTRRPPAPNLHVSPELFCEPREVRRVQWPATQQGMLVERPCPKGTRGIASFQCLPALGLWNPRGPDLSNCTSPWVNQVAQKIKSGENAANIASELARHTRGSIYAGDVSSSVKLMEQLLDILDAQLQALRPIERESAGKNYNKMHKRERTCKDYIKAVVETVDNLLRPEALESWKDMNATEQVHTATMLLDVLEEGAFLLADNVREPARFLAAKQNVVLEVTVLNTEGQVQELVFPQEYPSENSIQLSANTIKQNSRNGVVKVVFILYNNLGLFLSTENATVKLAGEAGTGGPGGASLVVNSQVIAASINKESSRVFLMDPVIFTVAHLEAKNHFNANCSFWNYSERSMLGYWSTQGCRLVESNKTHTTCACSHLTNFAVLMAHREIYQGRINELLLSVITWVGIVISLVCLAICISTFCFLRGLQTDRNTIHKNLCINLFLAELLFLVGIDKTQYEVACPIFAGLLHYFFLAAFSWLCLEGVHLYLLLVEVFESEYSRTKYYYLGGYCFPALVVGIAAAIDYRSYGTEKACWLRVDNYFIWSFIGPVSFVIVVNLVFLMVTLHKMIRSSSVLKPDSSRLDNIKSWALGAIALLFLLGLTWAFGLLFINKESVVMAYLFTTFNAFQGVFIFVFHCALQKKVHKEYSKCLRHSYCCIRSPPGGTHGSLKTSAMRSNTRYYTGTQSRIRRMWNDTVRKQTESSFMAGDINSTPTLNRGTMGNHLLTNPVLQPRGGTSPYNTLIAESVGFNPSSPPVFNSPGSYREPKHPLGGREACGMDTLPLNGNFNNSYSLRSGDFPPGDGGPEPPRGRNLADAAAFEKMIISELVHNNLRGASGGAKGPPPEPPVPPVPGVSEDEAGGPGSADRAEIELLYKALEEPLLLPRAQSVLYQSDLDESESCTAEDGATSRPLSSPPGRDSLYASGANLRDSPSYPDSSPEGPNEALPPPPPAPPGPPEIYYTSRPPALVARNPLQGYYQVRRPSHEGYLAAPSLEGPGPDGDGQMQLVTSL",glycan array binding signal (z-score),[1],0.557
same,glycan array binding signal (z-score),Fuc(a1-4)GlcNAc,-0.33
same,glycan array binding signal (z-score),Fuc(b1-3)GlcNAc,-0.048
same,glycan array binding signal (z-score),Gal(a1-2)Gal,-0.272
same,glycan array binding signal (z-score),Gal(a1-3)Gal,0.155
same,glycan array binding signal (z-score),Gal(a1-3)Gal(b1-3)GlcNAc,-0.505
same,glycan array binding signal (z-score),Gal(a1-3)Gal(b1-4)Glc,-0.08
same,glycan array binding signal (z-score),Gal(a1-3)Gal(b1-4)GlcNAc,-0.113
same,glycan array binding signal (z-score),[2],0.451
same,glycan array binding signal (z-score),Gal(a1-3)GalNAc,-0.05
same,glycan array binding signal (z-score),[3],-0.374
same,glycan array binding signal (z-score),Gal(a1-4)Gal(b1-4)Glc,-0.17
same,glycan array binding signal (z-score),Gal(a1-4)Gal(b1-4)GlcNAc,-0.187
same,glycan array binding signal (z-score),Gal(a1-4)GlcNAc,-0.181
same,glycan array binding signal (z-score),Gal(a1-6)Glc,-0.443
same,glycan array binding signal (z-score),Gal(b1-2)Gal,-0.052
same,glycan array binding signal (z-score),Gal(b1-3)Gal,-0.128
same,glycan array binding signal (z-score),Gal(b1-3)Gal(b1-4)GlcNAc,0.16
same,glycan array binding signal (z-score),Gal(b1-3)GalNAc,0.025
same,glycan array binding signal (z-score),[4],-0.1
same,glycan array binding signal (z-score),[5],-0.183
same,glycan array binding signal (z-score),[6],-0.12
same,glycan array binding signal (z-score),Gal(b1-3)GlcNAc,-0.325
same,glycan array binding signal (z-score),[7],0.025
same,glycan array binding signal (z-score),[8],-0.333
same,glycan array binding signal (z-score),[9],0.789
same,glycan array binding signal (z-score),[10],-0.33
same,glycan array binding signal (z-score),[11],-0.197
same,glycan array binding signal (z-score),[12],-0.521
same,glycan array binding signal (z-score),[13],-0.369
same,glycan array binding signal (z-score),[14],-0.14
same,glycan array binding signal (z-score),[15],-0.336
same,glycan array binding signal (z-score),[16],-0.398
same,glycan array binding signal (z-score),[17],-0.14
same,glycan array binding signal (z-score),[18],0.071
same,glycan array binding signal (z-score),[19],0.331
same,glycan array binding signal (z-score),[20],1.66
same,glycan array binding signal (z-score),Gal(b1-4)Glc,-0.186
same,glycan array binding signal (z-score),Gal(b1-4)Glc6S,0.054
same,glycan array binding signal (z-score),Gal(b1-4)GlcNAc,-0.404
same,glycan array binding signal (z-score),[21],0.718
same,glycan array binding signal (z-score),[22],0.535
same,glycan array binding signal (z-score),[23],0.183
same,glycan array binding signal (z-score),[24],-0.322
same,glycan array binding signal (z-score),[25],-0.105
